# The list shows a part of the results.
# Experiments:
# Assay in all cases: glycan array binding signal (z-score within array); higher = stronger binding
# Details in all cases: glycan notation: IUPAC condensed, linker removed
# Fuc(a1-2)Gal = target: Fuc(a1-2)Gal
# In short: (§1)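 The binding signal is a Z-score computed within each array and averaged over linkers. Arrays of the same protein sequence at different concentrations or buffers were also averaged together. Data originate from 3228 arrays in the Consortium for Functional Glycomics database, kept only where the protein sequence was available.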
# Fuc(a1-2)Gal(b1-3)GalNAc = target: Fuc(a1-2)Gal(b1-3)GalNAc
# In short: as §1
# [1] = target: Fuc(a1-2)Gal(b1-3)GalNAc(b1-3)Gal
# In short: as §1
# [2] = target: Fuc(a1-2)Gal(b1-3)GalNAc(b1-3)Gal(a1-4)Gal(b1-4)Glc
# In short: as §1
# [3] = target: Fuc(a1-2)Gal(b1-3)GalNAc(b1-4)[Neu5Ac(a2-3)]Gal(b1-4)Glc
# In short: as §1
# Fuc(a1-2)Gal(b1-3)GlcNAc = target: Fuc(a1-2)Gal(b1-3)GlcNAc
# In short: as §1
# [4] = target: Fuc(a1-2)Gal(b1-3)[Fuc(a1-4)]GlcNAc
# In short: as §1
# Fuc(a1-2)Gal(b1-4)Glc = target: Fuc(a1-2)Gal(b1-4)Glc
# In short: as §1
# Fuc(a1-2)Gal(b1-4)GlcNAc = target: Fuc(a1-2)Gal(b1-4)GlcNAc
# In short: as §1
# [5] = target: Fuc(a1-2)Gal(b1-4)GlcNAc(b1-3)Gal(b1-4)GlcNAc
# In short: as §1
# [6] = target: Fuc(a1-2)Gal(b1-4)GlcNAc(b1-3)Gal(b1-4)GlcNAc(b1-3)Gal(b1-4)GlcNAc
# In short: as §1
# [7] = target: Fuc(a1-2)Gal(b1-4)[Fuc(a1-3)]GlcNAc
# In short: as §1
# Fuc(a1-2)GlcNAc = target: Fuc(a1-2)GlcNAc
# In short: as §1
# Fuc(a1-2)[Gal(a1-3)]Gal = target: Fuc(a1-2)[Gal(a1-3)]Gal
# In short: as §1
# [8] = target: Fuc(a1-2)[Gal(a1-3)]Gal(b1-4)GlcNAc
# In short: as §1
# [9] = target: Fuc(a1-2)[Gal(a1-4)]Gal(b1-4)GlcNAc
# In short: as §1
# [10] = target: Fuc(a1-2)[GalNAc(a1-3)]Gal
# In short: as §1
# [11] = target: Fuc(a1-2)[GalNAc(a1-3)]Gal(b1-4)GlcNAc
# In short: as §1
# [12] = target: Fuc(a1-2)[GalNAc(a1-4)]Gal(b1-4)GlcNAc
# In short: as §1
# [13] = target: Fuc(a1-2)[GalNAc(b1-3)]Gal
# In short: as §1
# Fuc(a1-3)GlcNAc = target: Fuc(a1-3)GlcNAc
# In short: as §1
# [14] = target: Fuc(a1-3)[Gal(b1-4)]GlcNAc
# In short: as §1
# [15] = target: Fuc(a1-3)[Gal(b1-4)]GlcNAc(b1-3)Gal(b1-4)[Fuc(a1-3)]GlcNAc
# In short: as §1
# [16] = target: Fuc(a1-3)[Gal(b1-4)]GlcNAc(b1-3)Gal(b1-4)[Fuc(a1-3)]GlcNAc(b1-3)Gal(b1-4)[Fuc(a1-3)]GlcNAc
# In short: as §1
# [17] = target: Fuc(a1-3)[Gal3S(b1-4)]GlcNAc
# In short: as §1
# Fuc(b1-3)GlcNAc = target: Fuc(b1-3)GlcNAc
# In short: as §1
# Gal(a1-2)Gal = target: Gal(a1-2)Gal
# In short: as §1
# Gal(a1-3)Gal = target: Gal(a1-3)Gal
# In short: as §1
# Gal(a1-3)Gal(b1-4)Glc = target: Gal(a1-3)Gal(b1-4)Glc
# In short: as §1
# Gal(a1-3)Gal(b1-4)GlcNAc = target: Gal(a1-3)Gal(b1-4)GlcNAc
# In short: as §1
# [18] = target: Gal(a1-3)Gal(b1-4)[Fuc(a1-3)]GlcNAc
# In short: as §1
# Gal(a1-3)GalNAc = target: Gal(a1-3)GalNAc
# In short: as §1
# [19] = target: Gal(a1-3)[Gal(a1-4)]Gal(b1-4)GlcNAc
# In short: as §1
# Gal(a1-4)Gal(b1-4)Glc = target: Gal(a1-4)Gal(b1-4)Glc
# In short: as §1
# Gal(a1-4)Gal(b1-4)GlcNAc = target: Gal(a1-4)Gal(b1-4)GlcNAc
# In short: as §1
# Gal(a1-4)GlcNAc = target: Gal(a1-4)GlcNAc
# In short: as §1
# Gal(a1-6)Glc = target: Gal(a1-6)Glc
# In short: as §1
# Gal(b1-2)Gal = target: Gal(b1-2)Gal
# In short: as §1
# Gal(b1-3)Gal = target: Gal(b1-3)Gal
# In short: as §1
# Gal(b1-3)GalNAc = target: Gal(b1-3)GalNAc
# In short: as §1
# [20] = target: Gal(b1-3)GalNAc(b1-4)Gal(b1-4)Glc
# In short: as §1
# [21] = target: Gal(b1-3)GalNAc(b1-4)[Neu5Ac(a2-3)]Gal(b1-4)Glc
# In short: as §1
# Gal(b1-3)GlcNAc = target: Gal(b1-3)GlcNAc
# In short: as §1
# [22] = target: Gal(b1-3)GlcNAc(b1-3)Gal(b1-4)Glc
# In short: as §1
# [23] = target: Gal(b1-3)[Fuc(a1-4)]GlcNAc
# In short: as §1
binder,measurement,setting,value
"RegIIIalpha (Mus musculus), O09037 (protein) MLPHLVLNSISWMLLSCLLFVFQVQGEDFQKEVPSPRTSCPMGYKAYRSHCYALVMTPKSWFQADLVCQKRPSGHLVSILSGGEASFVSSLVNGRVDNYQDIWIGLHDPTMGQQPNGGGWEWSNSDVLNYLNWDGDPSSTVNRGHCGSLTASSGFLKWGDYYCDGTLPFVCKFKQ",glycan array binding signal (z-score),Fuc(a1-2)Gal,-0.097
same,glycan array binding signal (z-score),Fuc(a1-2)Gal(b1-3)GalNAc,-0.085
same,glycan array binding signal (z-score),[1],-0.064
same,glycan array binding signal (z-score),[2],-0.087
same,glycan array binding signal (z-score),[3],-0.069
same,glycan array binding signal (z-score),Fuc(a1-2)Gal(b1-3)GlcNAc,-0.093
same,glycan array binding signal (z-score),[4],-0.066
same,glycan array binding signal (z-score),Fuc(a1-2)Gal(b1-4)Glc,-0.099
same,glycan array binding signal (z-score),Fuc(a1-2)Gal(b1-4)GlcNAc,-0.094
same,glycan array binding signal (z-score),[5],-0.097
same,glycan array binding signal (z-score),[6],0.048
same,glycan array binding signal (z-score),[7],-0.066
same,glycan array binding signal (z-score),Fuc(a1-2)GlcNAc,-0.089
same,glycan array binding signal (z-score),Fuc(a1-2)[Gal(a1-3)]Gal,-0.098
same,glycan array binding signal (z-score),[8],-0.098
same,glycan array binding signal (z-score),[9],-0.095
same,glycan array binding signal (z-score),[10],-0.086
same,glycan array binding signal (z-score),[11],-0.101
same,glycan array binding signal (z-score),[12],-0.005
same,glycan array binding signal (z-score),[13],-0.091
same,glycan array binding signal (z-score),Fuc(a1-3)GlcNAc,-0.053
same,glycan array binding signal (z-score),[14],-0.04
same,glycan array binding signal (z-score),[15],-0.075
same,glycan array binding signal (z-score),[16],-0.097
same,glycan array binding signal (z-score),[17],-0.045
same,glycan array binding signal (z-score),Fuc(b1-3)GlcNAc,-0.002
same,glycan array binding signal (z-score),Gal(a1-2)Gal,-0.09
same,glycan array binding signal (z-score),Gal(a1-3)Gal,-0.094
same,glycan array binding signal (z-score),Gal(a1-3)Gal(b1-4)Glc,-0.094
same,glycan array binding signal (z-score),Gal(a1-3)Gal(b1-4)GlcNAc,-0.089
same,glycan array binding signal (z-score),[18],-0.095
same,glycan array binding signal (z-score),Gal(a1-3)GalNAc,-0.096
same,glycan array binding signal (z-score),[19],0.002
same,glycan array binding signal (z-score),Gal(a1-4)Gal(b1-4)Glc,-0.066
same,glycan array binding signal (z-score),Gal(a1-4)Gal(b1-4)GlcNAc,-0.094
same,glycan array binding signal (z-score),Gal(a1-4)GlcNAc,-0.047
same,glycan array binding signal (z-score),Gal(a1-6)Glc,-0.089
same,glycan array binding signal (z-score),Gal(b1-2)Gal,-0.09
same,glycan array binding signal (z-score),Gal(b1-3)Gal,-0.089
same,glycan array binding signal (z-score),Gal(b1-3)GalNAc,-0.094
same,glycan array binding signal (z-score),[20],-0.094
same,glycan array binding signal (z-score),[21],-0.091
same,glycan array binding signal (z-score),Gal(b1-3)GlcNAc,-0.097
same,glycan array binding signal (z-score),[22],-0.088
same,glycan array binding signal (z-score),[23],-0.078

# — the supplement of paper PMC8728848
